{"source": "the supplement of paper PMC3334620", "note": "In all, about 33,000 sequences were measured (“E-score (-0.5 to 0.5)”: median about -0.016, highest 2% from about 0.32 on). The list shows a part of the results."}
{"target": "T1, Stp1 (UniProt B3LFK1)", "T1 sequence": "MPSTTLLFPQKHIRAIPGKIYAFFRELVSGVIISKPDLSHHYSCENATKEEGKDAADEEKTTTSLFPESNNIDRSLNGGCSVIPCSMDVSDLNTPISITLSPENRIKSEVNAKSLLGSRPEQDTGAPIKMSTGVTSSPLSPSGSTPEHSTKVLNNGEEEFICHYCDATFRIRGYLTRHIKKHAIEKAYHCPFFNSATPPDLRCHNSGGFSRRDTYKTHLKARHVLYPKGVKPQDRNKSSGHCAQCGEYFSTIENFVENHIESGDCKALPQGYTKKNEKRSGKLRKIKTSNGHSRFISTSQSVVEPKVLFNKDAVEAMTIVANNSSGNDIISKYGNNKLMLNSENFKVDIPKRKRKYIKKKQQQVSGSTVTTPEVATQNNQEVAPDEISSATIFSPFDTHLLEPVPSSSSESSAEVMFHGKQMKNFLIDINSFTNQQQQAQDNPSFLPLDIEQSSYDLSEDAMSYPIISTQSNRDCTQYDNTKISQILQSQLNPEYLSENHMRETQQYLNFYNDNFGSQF", "assay": "PBM E-score (8-mer binding enrichment) (E-score (-0.5 to 0.5)); higher = stronger / more preferred TF binding; most listed sequences are background and not binding sites", "conditions": "protein concentration: 200 nM; construct: GST-full length", "outline": "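Using PURExpress in vitro transcription/translation, GST-tagged yeast transcription factors were made in full-length or DNA-binding-domain form. These were applied at about 100-200 nM to double-stranded universal all-10-mer Agilent arrays, and bound protein was detected with fluorescent anti-GST. Scans were normalised with masliner before the Universal PBM Analysis Suite assigned E-scores to ungapped eight-base words pooled with their reverse complements.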"}
{"sequence": "AATAGCGA", "PBM E-score": 0.0425}
{"sequence": "AAACCACT", "PBM E-score": -0.152}
{"sequence": "GCCCGGAC", "PBM E-score": -0.166}
{"sequence": "ACCGATTA", "PBM E-score": 0.0803}
{"sequence": "AATAGGTC", "PBM E-score": 0.0139}
{"sequence": "TAGGCAAA", "PBM E-score": 0.143}
{"sequence": "AAAGGCGG", "PBM E-score": 0.111}
{"sequence": "ATTCCCAC", "PBM E-score": -0.151}
{"sequence": "AATGAGGC", "PBM E-score": 0.266}
{"sequence": "GCAATCAC", "PBM E-score": 0.0501}
{"sequence": "GCACTTCC", "PBM E-score": -0.152}
{"sequence": "ACGAGAAC", "PBM E-score": -0.0406}
{"sequence": "CTCTTAAC", "PBM E-score": 0.0557}
{"sequence": "GCACGGTA", "PBM E-score": 0.196}
{"sequence": "CTGACTCC", "PBM E-score": -0.204}
{"sequence": "ATGTACGC", "PBM E-score": -0.0248}
{"sequence": "ACGATATG", "PBM E-score": 0.0345}
{"sequence": "GCCCGCAC", "PBM E-score": -0.0198}
{"sequence": "ACATTTAA", "PBM E-score": 0.0374}
{"sequence": "ACTCGGAG", "PBM E-score": -0.0524}
{"sequence": "CCGCTCCG", "PBM E-score": 0.155}
{"sequence": "CAGGCGCG", "PBM E-score": 0.113}
{"sequence": "AACGATGA", "PBM E-score": -0.0204}
{"sequence": "GTTTACGA", "PBM E-score": -0.1}
{"sequence": "ACCCATAT", "PBM E-score": -0.00852}
{"sequence": "CGAGAGCG", "PBM E-score": -0.133}
{"sequence": "CAGCAACC", "PBM E-score": -0.25}
{"sequence": "TACTATAA", "PBM E-score": 0.144}
{"sequence": "ACAGAACC", "PBM E-score": -0.136}
{"sequence": "TGTATAAA", "PBM E-score": -0.0312}
{"sequence": "AAACCCTC", "PBM E-score": -0.0879}
{"sequence": "AACGCTTG", "PBM E-score": -0.185}
{"sequence": "TATCAAGA", "PBM E-score": -0.00546}
{"sequence": "ACCTGATC", "PBM E-score": -0.184}
{"sequence": "ATACCCAA", "PBM E-score": 0.0376}
{"sequence": "GTCCCCAA", "PBM E-score": -0.0914}
{"sequence": "GCAGGTAA", "PBM E-score": -0.0691}
{"sequence": "AATGGCAC", "PBM E-score": 0.275}
{"sequence": "ACGTTGAC", "PBM E-score": -0.0723}
{"sequence": "CAAGGCGG", "PBM E-score": 0.101}
{"sequence": "AGAAGCTA", "PBM E-score": -0.0689}
{"sequence": "CTCGCGCA", "PBM E-score": -0.0098}
{"sequence": "ACACGCCT", "PBM E-score": 0.121}
{"sequence": "AATGCGCG", "PBM E-score": 0.249}
{"sequence": "GTGGTAGA", "PBM E-score": -0.195}
{"sequence": "ATCTGCTA", "PBM E-score": 0.0189}
{"sequence": "AATGACCG", "PBM E-score": 0.0598}
{"sequence": "CCCCAGGA", "PBM E-score": -0.304}
{"sequence": "GCTGATAC", "PBM E-score": 0.0381}
{"sequence": "CCGTCGAC", "PBM E-score": -0.0596}
{"sequence": "CGACCCCC", "PBM E-score": -0.384}
{"sequence": "GAGGTCAC", "PBM E-score": -0.123}
{"sequence": "GGACTCAC", "PBM E-score": -0.208}
{"sequence": "CCACAGAC", "PBM E-score": -0.0942}
{"sequence": "ACCGGTGG", "PBM E-score": -0.39}
{"sequence": "TAATCACA", "PBM E-score": 0.00219}
{"sequence": "ACCTTAAG", "PBM E-score": 0.097}
{"sequence": "CCCCGAAA", "PBM E-score": -0.0653}
{"sequence": "AATCGTCG", "PBM E-score": -0.00293}
{"sequence": "ACGAAAGC", "PBM E-score": -0.0461}
{"sequence": "ATGAACCG", "PBM E-score": -0.0954}
{"sequence": "CATATAGA", "PBM E-score": 0.16}
{"sequence": "ATCTGGTG", "PBM E-score": 0.065}
{"sequence": "CGAGGACA", "PBM E-score": -0.0278}
{"sequence": "AGTCTGAT", "PBM E-score": -0.154}
{"sequence": "GAGACACC", "PBM E-score": -0.167}
{"sequence": "GGCTTCAC", "PBM E-score": -0.136}
{"sequence": "GCCGATGA", "PBM E-score": -0.0281}
{"sequence": "ATGCCCAA", "PBM E-score": -0.0229}
{"sequence": "ACGCGATC", "PBM E-score": 0.00141}
{"sequence": "AACGCCGG", "PBM E-score": 0.0903}
{"sequence": "AAGTGTGT", "PBM E-score": 0.0121}
{"sequence": "GGAAAGGA", "PBM E-score": -0.0901}
{"sequence": "GACCTAAC", "PBM E-score": 0.0914}
{"sequence": "CTTCTCGA", "PBM E-score": -0.0263}
{"sequence": "CTAAACGA", "PBM E-score": 0.0761}
{"sequence": "AACCTAGT", "PBM E-score": -0.144}
{"sequence": "ATTTTTAC", "PBM E-score": 0.125}
{"sequence": "ACTGTGTG", "PBM E-score": 0.0416}
{"sequence": "GCGTAGAA", "PBM E-score": 0.0493}
{"sequence": "CACGACCC", "PBM E-score": -0.238}
{"sequence": "CGTCTATA", "PBM E-score": -0.0481}
{"sequence": "ACAGTAGT", "PBM E-score": -0.0193}
{"sequence": "ACTGAAAC", "PBM E-score": 0.2}
{"sequence": "CTTTCCCC", "PBM E-score": -0.13}
{"sequence": "ACACAAAA", "PBM E-score": 0.161}
